{"source": "PubChem BioAssay AID1030", "about": "(National Center for Advancing Translational Sciences (NCATS), 2008)", "note": "Among all 220,000 compounds or so, about 16,000 (7.3%) were called active. Inconclusive means that the source gave no clear call. Such entries were picked first, then a sample of the others. Calls follow the shape of the dose curve; as a rule, active = well fitted inhibition curve with a large enough effect (not every such curve was filed as active); inconclusive = small, poorly fitted or top-dose-only effect, or another doubt; inactive = no such curve, though single readings can be large or run the other way. No potency is given beside an inconclusive call; the fits are too rough. Potency is read from the fitted curve at half-maximal effect; tags tell the direction and shape of the fitted curve."}
{"molecular_target": "Aldehyde dehydrogenase 1A1 (Homo sapiens) (UniProt P00352)", "sequence (P00352 whole entry, looked up)": "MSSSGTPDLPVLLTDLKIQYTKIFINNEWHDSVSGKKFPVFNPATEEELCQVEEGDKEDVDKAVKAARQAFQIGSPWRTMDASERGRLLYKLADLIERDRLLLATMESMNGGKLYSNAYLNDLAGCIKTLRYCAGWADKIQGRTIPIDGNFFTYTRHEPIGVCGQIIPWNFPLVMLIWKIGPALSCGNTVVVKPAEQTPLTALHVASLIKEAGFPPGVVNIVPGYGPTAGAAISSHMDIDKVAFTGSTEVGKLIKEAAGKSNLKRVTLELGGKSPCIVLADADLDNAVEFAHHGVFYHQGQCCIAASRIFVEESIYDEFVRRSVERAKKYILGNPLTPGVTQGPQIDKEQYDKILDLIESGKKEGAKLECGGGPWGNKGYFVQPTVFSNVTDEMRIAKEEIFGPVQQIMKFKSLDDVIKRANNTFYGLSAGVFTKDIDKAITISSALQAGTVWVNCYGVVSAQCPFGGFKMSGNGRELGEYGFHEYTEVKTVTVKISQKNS", "test": "qHTS Assay for Inhibitors of Aldehyde Dehydrogenase 1 (ALDH1A1);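 as to activity, negative = inhibition: plate controls were no enzyme wells and a reference inhibitor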", "settings": "Purified ALDH1A1, NADH fluorescence, propionaldehyde substrate; series mostly up to 75.3 µM; activity, negative = inhibition: at the top concentration"}
{"smiles": "CC(C)C(=O)Nc1ncc(Cc2ccc(Cl)cc2)s1", "activity, negative = inhibition": "inactive: -6.02%"}
{"smiles": "CN1/C(=C/C=C(/C#N)C(N)=O)C(C)(C)c2ccccc21", "activity, negative = inhibition": "inactive: 6.49%"}
{"smiles": "O=C(N/N=C/C1C(c2ccccc2)C1(Cl)Cl)c1cccc(Cl)c1", "note": "(stereo not drawn)", "Potency": "active: 7.08 µM"}
{"smiles": "CCC(C)(C)c1ccc(Oc2cccc(C(=O)O)c2)cc1", "activity, negative = inhibition": "inactive: 6.03% [at 13.5 µM]"}
{"smiles": "S=C(Nc1ccccc1Cl)N(Cc1ccccc1)Cc1ccccn1", "Potency": "inconclusive [inhibitor, single point]"}
{"smiles": "CCOC(=O)Cc1csc(NC(=O)COc2ccc3ccccc3c2)n1", "Potency": "inconclusive [inhibitor, single point]"}
{"smiles": "CN(CC(=O)NC1CCCc2ccccc21)S(=O)(=O)c1ccc2c(c1)c(=O)n(C)c(=O)n2C", "note": "(stereo not drawn)", "Potency": "inconclusive [inhibitor, single point]"}
{"smiles": "COc1cccc(-c2nccc(N(C)Cc3ccco3)n2)c1", "Potency": "inconclusive [inhibitor, single point]"}
{"smiles": "CN(C)S(=O)(=O)Oc1cccc(C(=O)Nc2ccc(Cl)cc2)c1", "Potency": "active: 15.8 µM"}
{"smiles": "c1ccc(OCCOc2ncnc3sccc23)cc1", "activity, negative = inhibition": "inactive: -3.39%"}
{"smiles": "Cc1[nH][nH]c(=O)c1C(c1c(C)[nH][nH]c1=O)c1cn(Cc2ccccc2Cl)c2ccccc12", "Potency": "active: 0.447 µM"}
{"smiles": "CCOC(=O)c1cc(C#N)c(Oc2ccccc2OC)nc1-c1ccccc1", "activity, negative = inhibition": "inactive: -1.66%"}
{"smiles": "CC1=C(C(=O)Nc2ccc(Cl)cc2)C2(CCCCC2)C(C(N)=O)C(=S)N1", "note": "(stereo not drawn)", "activity, negative = inhibition": "inactive: 6.87%"}
{"smiles": "CN(c1cccc(NS(=O)(=O)c2cccs2)c1)S(C)(=O)=O", "Potency": "active: 20 µM"}
{"smiles": "CCc1ccc(C2C(C#N)=C(N)SC(N)=C2C#N)cc1", "Potency": "active: 11.2 µM"}
{"smiles": "Cc1ccc2nc(-c3ccc(S(=O)(=O)N4CCCCC4)cc3)cn2c1", "Potency": "inconclusive [inhibitor, partial curve]"}
{"smiles": "Cc1nc2ccc(NC(=S)N3CCN(c4ccccn4)CC3)cc2nc1C", "Potency": "inconclusive [inhibitor, single point]"}
{"smiles": "CC(=O)O[C@@]1(C(C)=O)CCC2C3C=C(Cl)C4=CC(=O)C5CC5[C@@]4(C)C3CC[C@]21C", "note": "(stereo partly drawn)", "activity, negative = inhibition": "inactive: 1.13%"}
{"smiles": "COc1cc(C(=O)NC(=S)Nc2ccc3oc(=O)ccc3c2)cc(OC)c1OC", "activity, negative = inhibition": "inactive: -0.676%"}
{"smiles": "COc1ccc(NC(=O)CSc2nnnn2Cc2ccccc2)cc1", "Potency": "inconclusive [inhibitor, partial curve, poor fit]"}
{"smiles": "COc1ccc(Cl)cc1C(=O)Nc1ccc(NC(C)=O)cc1", "Potency": "inconclusive [inhibitor, single point]"}
{"smiles": "CCOC(=O)c1c(C)n(C)c2ccc(OCC(O)CN3CCC(C)CC3)cc12", "note": "(stereo not drawn)", "Potency": "inconclusive [inhibitor, partial curve]"}
{"smiles": "COc1ccc(OCc2nnc(SCC(=O)N(C)Cc3ccccc3)n2N)cc1", "Potency": "active: 8.91 µM"}
{"smiles": "FC(F)(F)c1cnc(C(c2ccccc2)c2ncn[nH]2)c(Cl)c1", "note": "(stereo not drawn)", "activity, negative = inhibition": "inactive: 10.4%"}
{"smiles": "COc1ccc(CCNC(=O)CCn2c(=O)c3ccccc3n(CC(=O)NCC3CCCO3)c2=O)cc1OC", "note": "(stereo not drawn)", "Potency": "inconclusive [inhibitor, single point]"}
{"smiles": "COCCn1c(=O)c(-c2cccs2)nc2cncnc21", "Potency": "inconclusive [inhibitor, partial curve]"}
{"smiles": "Cc1cccc(NC(=O)COc2cccc3c2CCN(C)C3=O)c1", "Potency": "inconclusive [inhibitor, single point]"}
{"smiles": "NS(=O)(=O)c1ccc(NC(=S)N2CCN(Cc3ccc(Cl)c(Cl)c3)CC2)cc1", "activity, negative = inhibition": "inactive: 7.17%"}
{"smiles": "O=C(NCc1cccnc1)c1ccc(S(=O)(=O)N2CCCCCC2)cc1", "Potency": "inconclusive [inhibitor, single point]"}
{"smiles": "COc1cccc(Cn2c(=O)c(-c3cccs3)nc3cnc(OCc4ccccc4)nc32)c1", "Potency": "inconclusive [inhibitor, full curve]"}
{"smiles": "Cc1ccc(SCCNC(=O)CN(c2ccc3c(c2)OCO3)S(C)(=O)=O)cc1", "Potency": "inconclusive [inhibitor, single point]"}
{"smiles": "Cc1c(N)c(C(C)(C)C)cc(C(C)(C)C)c1[N+](=O)[O-]", "activity, negative = inhibition": "inactive: -9.58%"}
{"smiles": "COc1cc(CNc2ccc(N3CCOCC3)cc2)cc(Br)c1OC", "Potency": "inconclusive [inhibitor, single point]"}
{"smiles": "COc1ccc(-c2coc3c(OC)c(OC)cc(OC)c3c2=O)cc1", "Potency": "inconclusive [inhibitor, single point]"}
{"smiles": "Cc1ccc(N=C2N=C(N)c3ccccc32)c(C)c1", "activity, negative = inhibition": "inactive: 7.14%"}
{"smiles": "CC(=O)Nc1ccc(N(C(=O)CNC(=O)c2ccco2)C(C(=O)NCc2ccco2)c2ccccc2F)cc1", "note": "(stereo not drawn)", "Potency": "active: 7.94 µM"}
{"smiles": "O=C(CC12CC3CC(CC(C3)C1)C2)N1CCOCC1", "activity, negative = inhibition": "inactive: 5.16%"}
{"smiles": "CN(C)/C=C/C(=O)c1ccc(Cl)s1", "Potency": "inconclusive [inhibitor, partial curve]"}
{"smiles": "Cc1ccc(S(=O)(=O)N(CCCN2CCCC2=O)Cc2cc3c(C)ccc(C)c3[nH]c2=O)cc1", "Potency": "inconclusive [inhibitor, partial curve]"}
{"smiles": "COc1ccc(N/N=C2/CCCCC2=O)cc1", "Potency": "inconclusive [inhibitor, single point]"}
{"smiles": "CN(C1CCS(=O)(=O)C1)S(=O)(=O)c1ccccc1", "note": "(stereo not drawn)", "activity, negative = inhibition": "inactive: -5.46%"}
{"smiles": "CCOCCOc1nc(C)cc(C)c1S(=O)(=O)c1ccccc1C", "activity, negative = inhibition": "inactive: 0.279%"}
{"smiles": "CCC(C)NC(=O)/C=C/c1ccc(S(=O)(=O)NCc2ccco2)cc1", "note": "(stereo not drawn)", "Potency": "active: 17.8 µM"}
{"smiles": "CCCC(=O)NC(c1ccc(N(C)C)cc1)c1c(O)ccc2ccccc12", "note": "(stereo not drawn)", "Potency": "inconclusive [inhibitor, partial curve]"}
{"smiles": "Cc1ccc(-c2cc(C(=O)Nc3ccc(S(=O)(=O)Nc4cc(C)on4)cc3)c3ccccc3n2)c(C)c1", "activity, negative = inhibition": "inactive: -0.343%"}
{"smiles": "COC(=O)c1c(NC(=S)Nc2ccc(C(=O)N3CCOCC3)cc2)sc2c1CCC2", "Potency": "active: 3.55 µM"}
{"smiles": "O=C(Nc1cccc(C(F)(F)F)c1)c1cnc2n(c1=O)CCS2", "Potency": "inconclusive [inhibitor, single point]"}
{"smiles": "COc1ccccc1NC(=S)NNC(=O)c1ccccc1Br", "Potency": "inconclusive [inhibitor, single point]"}
